The results in this text go back to the antibiotic and cytotoxicity screens of Wong et al. (2023).

Test [1] has as its system HSkMC (human skeletal muscle cells). As to the kind of experiment: cytotoxicity call (relative viability < 0.9). As to conditions: 10 µM.
For test [2], the system named is HepG2. As to the kind of experiment: cytotoxicity call (relative viability < 0.9). As to conditions: 10 µM.
For test [3], the system named is S. aureus RN4220. As to the kind of experiment: growth inhibition call (relative growth <= 0.2). The following applies: 50 µM.

Structures are written as SMILES. The list shows a part of the results.

With `CCS(=O)(=O)Nc1ccc2c(c1)CC(=O)N2`, the cytotoxicity call in test [1] and in test [2] was “inactive” in each case. Further, the growth inhibition call in test [3] is “inactive”.
As for `Cc1noc(C)c1S(=O)(=O)Nc1ccc2c(c1)C(=O)N([C@@H](C)CO)C[C@@H](C)[C@H](CN(C)C(=O)NC(C)C)O2`, the cytotoxicity call in test [1] and in test [2] was “inactive” in each case. In addition, the growth inhibition call in test [3] was “inactive”.
Take `C[C@H](CO)N1C[C@H](C)[C@@H](CN(C)S(=O)(=O)c2cccs2)OCCCC[C@H](C)Oc2ccc(NC(=O)Nc3ccccc3)cc2C1=O`: the cytotoxicity call in test [1] and in test [2] was “inactive” in each case. In addition, the growth inhibition call in test [3] was “inactive”.
In the case of `CCCC1CC(C(=O)NC(C(C)Cl)C2OC(SC)C(O)C(O)C2O)N(C)C1.Cl` (centres undefined), the cytotoxicity call in test [1] and in test [2] was “inactive” each time. The growth inhibition call in test [3] was “active”.
As for `C[C@@H]1CN([C@@H](C)CO)C(=O)c2cccc(NS(=O)(=O)c3cccs3)c2O[C@@H]1CN(C)S(=O)(=O)c1ccc(F)cc1`, the cytotoxicity call in test [1] and in test [2] was “inactive” in each case. Further, the growth inhibition call in test [3] is “inactive”.
Consider `Cc1noc(C)c1NC(=O)Nc1ccc2c(c1)C(=O)N([C@H](C)CO)C[C@H](C)[C@@H](CN(C)S(=O)(=O)c1cccs1)OCCCC[C@@H](C)O2`, for which the cytotoxicity call in test [1] and in test [2] was “inactive” throughout. Moreover, the growth inhibition call in test [3] is “inactive”.
Consider `CC(CCc1ccc(O)cc1)NCCc1ccc(O)c(O)c1.Cl` (centres undefined), for which the cytotoxicity call in test [1] and in test [2] was “inactive” in each case. The growth inhibition call in test [3] was “inactive”.
Regarding `C[C@@H]1CN([C@@H](C)CO)S(=O)(=O)c2ccc(-c3ccc(C#N)cc3)cc2O[C@H]1CN(C)C(=O)CN(C)C`, the cytotoxicity call in test [1] and in test [2] was “inactive” in each case. In addition, the growth inhibition call in test [3] was “inactive”.
For the compound `COc1ccc(S(=O)(=O)Nc2ccc3c(c2)C(=O)N([C@H](C)CO)C[C@H](C)[C@H](CN(C)S(=O)(=O)c2ccccc2)O3)cc1`, the cytotoxicity call in test [1] and in test [2] was “inactive” each time. For the same compound, in test [3], the growth inhibition call was “inactive”.
As to `CN(C)CCC=C1c2ccccc2C=Cc2ccccc21.Cl`, the cytotoxicity call in test [1] was “inactive”. For the same compound, the cytotoxicity call in test [2] was “active”. Moreover, the growth inhibition call in test [3] was “inactive”.
In the case of `Cc1noc(C)c1NC(=O)N(C)C[C@H]1OCCCC[C@@H](C)Oc2ccc(NC(=O)CCC(F)(F)F)cc2C(=O)N([C@@H](C)CO)C[C@@H]1C`, the cytotoxicity call in test [1] and in test [2] was “inactive” in each case. In test [3], the growth inhibition call is “inactive”.
Consider `C[C@@H]1CN([C@@H](C)CO)C(=O)CCCn2cc(nn2)CO[C@H]1CN(C)Cc1ccc(C(=O)Nc2ccccc2N)cc1`, for which the cytotoxicity call in test [1] and in test [2] was “inactive” throughout. For the same compound, the growth inhibition call in test [3] is “inactive”.
As to `C[C@H]1CN([C@@H](C)CO)C(=O)CCCn2nncc2CO[C@@H]1CN(C)Cc1ccc2c(c1)OCCN2C`, the cytotoxicity call in test [1] and in test [2] was “inactive” throughout. In test [3], the growth inhibition call is “inactive”.
For `Cc1ccc(S(=O)(=O)N(C)C[C@H]2Oc3c(NS(=O)(=O)c4cccs4)cccc3C(=O)N([C@@H](C)CO)C[C@@H]2C)cc1`, the cytotoxicity call in test [1] and in test [2] was “inactive” each time. Also, the growth inhibition call in test [3] was “inactive”.
Take `Cc1ccc(C)c(S(=O)(=O)N2[C@@H]3CC[C@@H](C3)[C@H]2c2nc3cccc(OCc4ccc(F)cc4)c3[nH]2)c1`: the cytotoxicity call in test [1] and in test [2] was “inactive” in each case. For the same compound, the growth inhibition call in test [3] is “inactive”.
As to `Cc1noc(C)c1S(=O)(=O)Nc1ccc2c(c1)CC(=O)N([C@H](C)CO)C[C@@H](C)[C@H](CN(C)S(=O)(=O)c1ccccc1)O2`, the cytotoxicity call in test [1] and in test [2] was “inactive” each time. For the same compound, in test [3], the growth inhibition call is “inactive”.
Consider `COc1ccc(-c2ccc3c(c2)O[C@H](CN(C)CC2CCOCC2)[C@@H](C)CN([C@H](C)CO)S3(=O)=O)cc1`, for which the cytotoxicity call in test [1] and in test [2] was “inactive” throughout. Besides, the growth inhibition call in test [3] was “inactive”.
As to `C[C@@H]1CN([C@@H](C)CO)C(=O)c2c(c3ccccc3n2C)-c2ccccc2CO[C@@H]1CN(C)S(C)(=O)=O`, the cytotoxicity call in test [1] and in test [2] was “inactive” throughout. In addition, the growth inhibition call in test [3] was “inactive”.
For `CCn1ncc(Br)c1CN`, the cytotoxicity call in test [1] and in test [2] was “inactive” in each case. Further, the growth inhibition call in test [3] is “inactive”.
For `CC(C)N1CCNCC1`, the cytotoxicity call in test [1] and in test [2] was “inactive” in each case. In test [3], the growth inhibition call was “inactive”.
In the case of `CCc1ccc(CCOc2ccc(CC3SC(=O)NC3=O)cc2)nc1.Cl` (centres undefined), the cytotoxicity call in test [1] and in test [2] was “inactive” each time. In addition, in test [3], the growth inhibition call is “inactive”.
In the case of `CCCOc1ccc2nc(NC(=O)OC)[nH]c2c1`, the cytotoxicity call in test [1] was “inactive”. For the same compound, in test [2], the cytotoxicity call is “active”. The growth inhibition call in test [3] is “inactive”.
Regarding `COc1ccc(NC(=O)N(C)C[C@@H]2OCCCC[C@@H](C)Oc3ccc(NC(=O)Nc4ccc(C(F)(F)F)cc4)cc3C(=O)N([C@H](C)CO)C[C@H]2C)cc1`, the cytotoxicity call in test [1] and in test [2] was “inactive” in each case. Moreover, the growth inhibition call in test [3] was “inactive”.
Consider `C[C@@H]1CN([C@H](C)CO)C(=O)c2cc(NS(=O)(=O)c3cccs3)ccc2O[C@H]1CN(C)S(=O)(=O)c1cn(C)cn1`, for which the cytotoxicity call in test [1] and in test [2] was “inactive” throughout. Moreover, in test [3], the growth inhibition call is “inactive”.
For `CC1OC(OCC2OC(Oc3c(-c4ccc(O)c(O)c4)oc4cc(O)cc(O)c4c3=O)C(O)C(O)C2O)C(O)C(O)C1O` (centres undefined), the cytotoxicity call in test [1] and in test [2] was “inactive” in each case. Further, in test [3], the growth inhibition call was “inactive”.
Regarding `C[C@H](CO)N1C[C@H](C)[C@@H](CN(C)C(=O)Cc2ccccc2)Oc2cc(C#CC3(O)CCCC3)ccc2S1(=O)=O`, the cytotoxicity call in test [1] and in test [2] was “inactive” each time. The growth inhibition call in test [3] is “inactive”.
As to `Cc1noc(C)c1NC(=O)Nc1ccc2c(c1)C(=O)N([C@@H](C)CO)C[C@@H](C)[C@@H](CN(C)Cc1ccc(Oc3ccccc3)cc1)O2`, the cytotoxicity call in test [1] and in test [2] was “inactive” each time. For the same compound, in test [3], the growth inhibition call is “inactive”.
`C[C@H]1CN([C@@H](C)CO)C(=O)CCCn2cc(nn2)CO[C@H]1CN(C)C(=O)c1cc(-c2ccccc2)on1`: the cytotoxicity call in test [1] and in test [2] was “inactive” each time. Also, the growth inhibition call in test [3] was “inactive”.
